# According to the supplement of paper PMC7826260:
# Some of the results follow. One pool of 16,384 single-stranded DNAs met each Rep nickase domain in vitro (1 h at 37 °C, 3 µM enzyme); the outer parts of the 90-letter strands are left off. Values are log2 of uncut reads against the no-enzyme pool; uncut sequences lie near 0, cut ones below; no hit call is given. The scaling is to total reads; values above 0 arise when much of the pool is cut.
# Experiments:
# Experiment in all cases: uncleaved DNA left, log2 of reads against the no-enzyme library (log2 ratio); higher = less cleavage (more negative = more Rep cleavage of the k-mer); sequences stand for … in CTCGTCCG…ACCGGAGA
# [1] = test system: T1, Rep nickase domain of Muscovy duck circovirus
# T1 sequence (protein, residues 1-111, tag omitted): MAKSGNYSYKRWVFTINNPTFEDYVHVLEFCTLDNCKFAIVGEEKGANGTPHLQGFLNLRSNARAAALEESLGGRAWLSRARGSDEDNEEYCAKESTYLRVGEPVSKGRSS
# Experimental: (§1)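 A pool of 90-nt single-stranded DNAs with seven random bases just before the constant AC of the nick site (name = the seven bases) was cut by 3 µM recombinant His6-SUMO-tagged Rep nickase domain (300 nM DNA, 50 mM HEPES pH 8.0, 50 mM NaCl, 1 mM MnCl2, 1 h, 37 °C, three replicates). Uncut DNA was amplified and sequenced.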
# [2] = test system: T2, Rep nickase domain of banana bunchy top virus
# T2 sequence (protein, residues 1-94, tag omitted): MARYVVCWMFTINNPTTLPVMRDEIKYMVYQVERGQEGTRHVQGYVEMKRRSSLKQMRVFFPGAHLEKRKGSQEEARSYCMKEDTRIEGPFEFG
# Experimental: as §1
# [3] = test system: T3, Rep nickase domain of cabbage leaf curl virus
# T3 sequence (protein, residues 1-116, tag omitted): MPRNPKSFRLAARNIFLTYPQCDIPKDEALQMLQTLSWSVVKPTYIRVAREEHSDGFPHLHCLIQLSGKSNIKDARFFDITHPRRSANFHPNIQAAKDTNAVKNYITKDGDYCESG
# Experimental: as §1
# [4] = test system: T4, Rep nickase domain of chickpea chlorotic dwarf virus
# T4 sequence (protein, residues 1-124, tag omitted): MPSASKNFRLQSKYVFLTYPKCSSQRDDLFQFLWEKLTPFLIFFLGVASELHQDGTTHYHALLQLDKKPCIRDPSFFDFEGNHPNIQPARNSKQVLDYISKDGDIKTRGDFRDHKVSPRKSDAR
# Experimental: as §1
# [5] = test system: T5, Rep nickase domain of faba bean necrotic yellows virus
# T5 sequence (protein, residues 1-98, tag omitted): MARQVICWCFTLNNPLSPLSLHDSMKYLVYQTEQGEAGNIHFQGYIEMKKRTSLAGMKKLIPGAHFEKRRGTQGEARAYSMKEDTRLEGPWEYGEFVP
# Experimental: as §1
# [6] = test system: T6, Rep nickase domain of maize striate mosaic virus
# T6 sequence (protein, residues 1-117, tag omitted): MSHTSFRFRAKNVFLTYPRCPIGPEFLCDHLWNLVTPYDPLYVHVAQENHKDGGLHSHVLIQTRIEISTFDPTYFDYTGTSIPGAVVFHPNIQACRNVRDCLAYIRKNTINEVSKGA
# Experimental: as §1
# [7] = test system: T7, Rep nickase domain of porcine circovirus 2
# T7 sequence (protein, residues 2-116, tag omitted): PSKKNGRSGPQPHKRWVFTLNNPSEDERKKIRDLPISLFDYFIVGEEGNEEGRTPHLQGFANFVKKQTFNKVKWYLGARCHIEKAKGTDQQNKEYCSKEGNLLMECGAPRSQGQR
# Experimental: as §1
# [8] = test system: T8, Rep nickase domain of tomato golden mosaic virus
# T8 sequence (protein, residues 1-124, tag omitted): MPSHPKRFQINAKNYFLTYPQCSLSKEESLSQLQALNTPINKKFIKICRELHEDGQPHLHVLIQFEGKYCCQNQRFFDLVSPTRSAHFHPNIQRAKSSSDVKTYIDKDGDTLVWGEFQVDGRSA
# Experimental: as §1
# [9] = test system: T9, Rep nickase domain of tomato yellow leaf curl virus
# T9 sequence (protein, residues 1-136, tag omitted): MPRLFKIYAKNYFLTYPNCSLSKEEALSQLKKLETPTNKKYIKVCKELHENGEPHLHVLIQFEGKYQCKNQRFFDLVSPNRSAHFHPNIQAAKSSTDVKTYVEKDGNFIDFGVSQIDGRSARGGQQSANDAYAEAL
# Experimental: as §1
# [10] = test system: T10, Rep nickase domain of wheat dwarf virus
# T10 sequence (protein, residues 1-137, tag omitted): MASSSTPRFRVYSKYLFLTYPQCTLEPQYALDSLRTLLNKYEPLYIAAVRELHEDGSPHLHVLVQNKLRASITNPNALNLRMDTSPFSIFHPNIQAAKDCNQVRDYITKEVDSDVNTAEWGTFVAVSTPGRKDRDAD
# Experimental: as §1
Sequence,uncleaved DNA left (log2) [1],uncleaved DNA left (log2) [2],uncleaved DNA left (log2) [3],uncleaved DNA left (log2) [4],uncleaved DNA left (log2) [5],uncleaved DNA left (log2) [6],uncleaved DNA left (log2) [7],uncleaved DNA left (log2) [8],uncleaved DNA left (log2) [9],uncleaved DNA left (log2) [10]
TCGCTAC,-0.0781,-0.15,-0.167,-1.36,-0.13,-0.639,-0.0608,-0.135,-0.0199,-0.211
GGAAGGT,0.155,0.105,0.605,1.41,0.0642,1.97,0.202,0.051,0.0511,0.146
ATTAATA,-0.149,-0.0689,-0.237,-1.77,-0.0181,-0.67,-0.201,0.022,-0.0314,-0.0653
CTCGGGC,0.0738,0.0923,0.193,0.355,-0.0224,0.0941,0.177,0.0543,0.0307,0.0375
CTGGGCA,0.183,0.00298,0.416,0.805,0.0124,0.559,0.104,-0.0139,-0.0941,0.0113
GCCTGAT,-0.0519,-0.119,0.0978,0.47,-0.123,0.873,-1.05,0.0776,-0.0863,0.00388
TGTGATT,-0.0113,-0.0872,0.0672,-0.972,-0.204,0.588,-1.05,-0.0387,0.00291,-0.14
TAATGGT,-2.7,-0.299,-4.39,-2.4,-0.0568,-2.93,-3.7,-3.78,-1.3,-3.94
CAATAAG,0.173,0.152,-0.668,0.121,0.00156,-0.406,0.294,-0.00306,0.0762,0.0485
AACCAGC,-0.0123,0.0289,-0.308,-0.561,0.0728,-1.06,-0.0833,-0.0404,-0.00191,-0.0106
TGGACAG,0.0355,0.0717,0.829,2.02,-0.0586,2.16,0.187,-0.0114,-0.0432,0.237
CACTTTA,-0.242,-0.292,-0.3,-2.47,-0.15,-0.987,-2.69,-0.181,-0.0662,-0.0259
CTGACAG,-0.0812,0.0326,-0.187,-0.0556,0.0238,-0.57,0.0452,0.0461,0.0152,-0.0324
TGACTCT,-0.00416,-0.161,0.0744,-0.947,-0.0201,0.307,-0.156,-0.229,-0.16,-0.168
TAAGAAG,0.146,0.0142,-0.682,-0.678,0.155,-1.02,0.26,0.104,0.0811,0.00716
TTGTCCC,-0.0743,-0.0699,0.228,-0.00885,-0.0709,-0.116,-0.371,-0.0634,-0.0598,-0.0654
ATCGAAA,0.04,0.0651,0.00149,-0.118,0.103,-0.616,0.0363,0.0942,-0.0737,0.12
CTAAACA,-0.174,0.0746,-0.0764,-2.26,-0.0821,-0.66,-0.114,0.00555,0.124,0.0842
GCCTCCT,-0.187,-0.106,0.0142,-0.953,-0.00314,0.223,-0.701,-0.0804,-0.143,-0.082
GATGTTG,0.0181,-0.0995,-0.269,-0.172,0.0844,-0.628,0.0998,-0.0561,0.0158,-0.0435

Sequence,uncleaved DNA left (log2) [1],uncleaved DNA left (log2) [2],uncleaved DNA left (log2) [3],uncleaved DNA left (log2) [4],uncleaved DNA left (log2) [5],uncleaved DNA left (log2) [6],uncleaved DNA left (log2) [7],uncleaved DNA left (log2) [8],uncleaved DNA left (log2) [9],uncleaved DNA left (log2) [10]
GAGGAGA,-0.047,0.18,0.721,1.53,0.097,1.77,0.271,0.195,0.148,0.128
GCCTTGC,-0.0252,0.000234,-0.645,-0.464,-0.0332,-1.15,0.00727,-0.0208,0.00509,-0.171
TCGTGTG,0.133,-0.087,-0.76,-0.496,0.135,-1.01,0.129,-0.0597,0.0647,-0.154
ACGCCTG,-0.059,0.136,-0.0243,0.301,0.0648,0.313,0.0945,0.0697,0.0252,0.0889
TTCAGAT,-0.0575,-0.0517,0.238,0.659,-0.0883,1.3,0.0825,-0.0298,-0.242,-0.0818
CGAGAGT,0.0641,0.09,0.0558,0.0126,0.00193,-0.125,0.0277,0.13,0.0921,0.116
GCGAGGC,-0.0609,-0.0953,0.00598,0.479,-0.106,0.306,0.0105,-0.0503,0.0248,-0.0474
CCGAATT,-0.0172,-0.162,0.00366,-1.55,-0.0525,-0.169,-0.828,-0.00929,0.213,-0.0956
ACGCTGT,0.132,-0.0146,-0.116,0.0341,-0.0113,-0.0503,0.0557,0.0149,-0.158,-0.0305
TGATGAG,0.0571,-0.117,-0.555,-0.202,0.107,-0.963,0.0454,0.00816,0.105,-0.0314
GCACGGT,0.154,0.093,0.418,0.872,0.0815,1.19,0.125,0.0587,0.00283,0.0768
ATACCGC,-0.029,-0.0693,-0.271,-0.541,0.0799,-0.82,0.0518,-0.0181,0.0149,0.0326
GGTGCGG,0.0852,-0.011,0.179,0.559,-0.00447,0.605,0.0807,0.077,-0.0999,-0.018
ACCCGCC,-0.0782,-0.106,-0.219,-0.2,-0.0318,-0.722,0.0816,-0.0403,-0.132,-0.151
AGCGACA,-0.0995,0.103,0.0649,0.696,-0.00306,1.41,0.003,0.111,-0.078,0.128
TCCTCCC,0.0689,-0.0457,0.155,-0.175,0.136,0.0702,-0.0886,-0.0976,-0.0719,-0.0274
TAAGTCG,-0.0745,-0.0299,-0.935,-0.449,-0.0282,-1.02,0.00331,-0.138,-0.107,-0.16
CTGGACT,-0.0205,0.0124,0.496,1.01,0.0392,1.74,0.0882,-0.0904,0.0647,0.113
AGATGAC,0.0062,-0.148,-0.14,0.565,-0.0762,0.00308,0.0307,0.0116,-0.157,-0.0679
TCCGCGG,0.0414,-0.0257,0.332,1.07,0.0216,1.29,0.0998,0.0621,-0.0602,-0.104

Sequence,uncleaved DNA left (log2) [1],uncleaved DNA left (log2) [2],uncleaved DNA left (log2) [3],uncleaved DNA left (log2) [4],uncleaved DNA left (log2) [5],uncleaved DNA left (log2) [6],uncleaved DNA left (log2) [7],uncleaved DNA left (log2) [8],uncleaved DNA left (log2) [9],uncleaved DNA left (log2) [10]
CGGTCTT,-1.02,-0.27,0.134,-0.349,-0.26,1.03,-2.74,-0.278,-0.0668,-0.0423
TTAAGGA,0.0541,0.0321,0.0775,0.18,0.0549,-0.148,0.14,0.0945,0.0148,0.0665
TAGTTTT,-3.61,-3.73,-3.23,-3.07,-3.65,-1.33,-4.45,-2.18,0.108,-2.34
GACGCGG,0.0085,0.0948,0.135,0.673,-0.0693,0.463,0.0364,0.0362,-0.0131,-0.0889
AACGCAG,0.0454,0.031,-0.28,-0.408,0.0883,-0.875,0.177,0.02,0.0678,0.0153
TCAGATG,0.0213,0.0807,0.188,0.831,0.0447,0.895,0.128,0.15,-0.0138,0.0207
AATTCAG,0.00452,0.0384,-0.793,-0.552,0.149,-1.24,0.137,0.0785,0.0426,-0.0471
CCCAATA,-0.12,0.0654,-0.186,-1.69,-0.0936,-0.631,-0.205,-0.106,0.0205,-0.0361
GGTTTAC,-0.00788,0.1,0.268,0.822,-0.00375,1.69,0.129,0.0804,0.0398,0.0628
TTTTGAG,-0.0528,-0.106,-0.802,-0.0819,0.0182,-1.09,0.157,-0.115,0.0155,-0.0676
GGGGCCG,-0.0527,0.0509,0.628,1.27,0.0149,1.48,0.171,0.0604,-0.0343,-0.0121
GAGTAGG,0.244,0.124,0.396,0.845,0.123,0.759,0.00886,0.298,0.203,0.233
GCCAGCT,-0.145,-0.0965,-0.302,-0.217,-0.147,-0.477,0.0342,-0.0467,-0.21,-0.0409
TGTGAAG,0.0987,0.133,-0.745,-0.455,0.127,-1,0.133,0.0355,0.0138,-0.0603
CTCGAGG,-0.0927,-0.177,0.362,1.11,-0.162,1.38,-0.0391,-0.197,-0.31,-0.136
AAGATTA,0.156,0.0512,0.000739,-1.08,0.319,0.157,-0.978,0.133,0.151,0.148
ACACTAG,0.0114,0.0248,-0.641,0.143,0.12,-0.66,0.214,0.000656,0.0193,-0.00737
AGCCGCT,0.14,0.113,-0.161,-0.365,-0.00858,-0.133,-0.0902,0.0751,0.0778,-0.0307
